Among the data in the RNAGym collection of RNA variant scans (doi:10.1093/nar/gkz1192) are self-cleavage values, retold here.

B1: CPEB3 Ribozyme (parent)
chain: UAACAGGGGGCCACAGCAGAAGCGUUCACGUCGCAGCCCCUGUCAGAUUCUGGUGAAUCUGCGAAUUCUGCUGUAUAUCUC

The source gives no read counts; variants with many changes may rest on few reads.

Variants of B1 are the subject of the series. Briefly: self-cleavage, relative activity (ratio to wild type); higher = more cleavage; in vitro, sequencing. In outline:
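For each CPEB3 ribozyme variant, relative activity is its cleaved/total read fraction divided by the unmutated ribozyme's. Barcoded error-prone PCR libraries were transcribed by T7 RNA polymerase (5 hours, 37°C) and held in DNase I for 15 min before an EDTA stop, with cleavage occurring throughout. Template-switching reverse transcription and Illumina sequencing were used to read the RNAs. A 5-read minimum applied, and results are the mean of three batches.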
Turning to G24U A35U G46A U48C C79A, the self-cleavage stood at 0.16.
For G24C U60A G63A the value was 0.11.
On to U25C A28G U49C U51A G52A U72C U74C, for which the self-cleavage amounted to 0.06.
For U25C A56G U80C the value was 0.28; for U25A G42U A45C, 0.16; for U25C U43C G52A U54C A75U, 0.22.
For G24U C40A U49C the value was 0.16; for G24C A65G U69C, 0.2.
For U25C A35U A47G U54A the value was 0.43.
With U25C U41C A77C, the self-cleavage came to 0.05.
On to G24A A47C A56G U60C, for which the self-cleavage amounted to 0.13.
As for U25C A45C U51C U54A, the figure is 0.47.
For U25C U31C U72A the value was 0.21; for U25C U41A A47G U51A, 0.14.
For U25C U41A G55C the value was 0.17.
As to C23U U48C U51C A57G U80A, the self-cleavage turned out to be 0.18.
For U25C C40U U49A the value was 0.06.
For the variant U25A U41C U49C A64U U69A, the self-cleavage worked out at 0.06.
As for G24C C37U U67C, the figure is 0.13; as for G24C A35U U41C A77G, 0.25; as for U25C A35G C40A U48C A64G U74C, 0.11.
For U25C A45G U48C the value was 0.32; for G24A U60G U74A, 0.12; for U25C G42C U43C U49C U67A U78C, 0.
Consider G24A A28G U60A U69C A77G, for which the self-cleavage is 0.14.
As for U25A C62G U67C U69A, the figure is 0.35.
For C23U U54A A65G U66C the value was 0.16; for U25C A47G A77C, 0.06.
For U25C C32U A47G the value was 0.25; for G24C U43C G55A, 0.17.
Consider U25A U41G C44A, for which the self-cleavage came to 0.26.
On to U25C U31C C40U A45U U72C C81A, for which the self-cleavage came to 0.06.
As for U25C A28U U51C U72C, the figure is 0.1; as for U25A U51C U76C, 0.13; as for U25A U43A U67C, 0.17.
Turning to U25A U48C U74C U80C, the self-cleavage turned out to be 0.23.
U25C U26G U48C A57G: the self-cleavage stood at 0.23.
As to U25C C27A U49C A56U, the self-cleavage came to 0.08.
As for U25A A35G A77U U80A, the figure is 0.28; as for U25C U43C U66A A75U, 0.14; as for U25C A57G U58C, 0.43.
For U25C U31C A75G U80C the value was 0.11.
As for U25C U31A U41A A47G U69A U72A, the figure is 0.06.
Consider U25C A45G A56U A65G U78C, for which the self-cleavage was 0.08.
For the variant G24C U26C U72C, the self-cleavage amounted to 0.29.
As for U25C G36A C38A U49C A57U C71U, the figure is 0.09.
Turning to U25C A45G A47G A64G, the self-cleavage was 0.22.
For U25A U26G U41A U49C A57G U80C the value was 0.14; for U25C A35U U60C, 0.15.
For U25C A45G U67C the value was 0.14.
For U25C U26A U41G the value was 0.31.
U25C A35U A47G U54C U66C: the self-cleavage was determined as 0.1.
As for U25C G63A A65C U66C, the figure is 0.12; as for U25C C27U C37U U43C A65G, 0.06; as for U25C C38A U66C, 0.15.
For G24C A28U G42A A47U A64U the value was 0.13; for U25C U31A A57G C59U G63A, 0.13.
Regarding C23U U41C A47G U58C, the self-cleavage came out at 0.4.
As for U25A U31A U60C, the figure is 0.06.
For G24A A28G U41A U69C U78C, the self-cleavage came to 0.11.
Take G24A U25A A64G C68A U72C: the self-cleavage was found to be 0.11.
As for C23U U43C A45U U51C U78C, the figure is 0.11; as for U25C C32U A77G, 0.21.
For U25C A28G A45G the value was 0.29; for G24A U31C A57G U80A, 0.52.
For the variant G24C U43A U72A A75G, the self-cleavage stood at 0.21.
For U25C A35G U49C the value was 0.42.
Regarding U25C U41G U78A, the self-cleavage is 0.3.
U25A U31C U49C: the self-cleavage was determined as 0.15.
As for U25C A35G A64G U78C, the figure is 0.12; as for U25A U48C A64G U80C, 0.09; as for U25C U31A C40U A64G C68A U80C, 0.08.
For U25C A28U U60C U66C U76C U78A the value was 0.05; for U25C C37U A45G U58A U67C U72A U80C, 0.04.
For G24C U26C A35G U49C U76C the value was 0.07; for U25C U26C G53C U78C, 0.23.
On to U25C G33U U49A A56G U58C U80C, for which the self-cleavage was found to be 0.06.
For U25A A28G A45U U74C U80C the value was 0.1.
For G24C A28U G42A A56C the value was 0.13.
As for C23U U51A U72A, the figure is 0.11.
For U25C A64U U72A, the self-cleavage stood at 0.14.
Take G24C U26A U51A U72C: the self-cleavage is 0.14.
For U25C C32U A35U U72C, the self-cleavage turned out to be 0.15.
For U25C U43C U49C the value was 0.33.
